In PubChem BioAssay AID1030 (National Center for Advancing Translational Sciences (NCATS), 2008):
Hit rate of the full screen: of about 220,000 compounds, about 16,000 (7.3%) were called active. The shares of active, inactive and inconclusive entries below differ from those in the screen. Calls come from the whole dose curve; as a rule, active = well fitted inhibition curve with a large enough effect (not every such curve was filed as active); inconclusive = small, poorly fitted or top-dose-only effect, or another doubt; inactive = no such curve, though single readings can be large or run the other way. Potencies of inconclusive entries are doubtful fits and often do not repeat. Some compounds were tested as several samples or in several runs, with calls that do not always agree.

target: Aldehyde dehydrogenase 1A1 (Homo sapiens) (UniProt P00352); test: qHTS Assay for Inhibitors of Aldehyde Dehydrogenase 1 (ALDH1A1); conditions: Purified ALDH1A1, NADH fluorescence, propionaldehyde substrate; series mostly up to 75.3 µM
UniProt P00352, sequence (P00352 whole entry, looked up): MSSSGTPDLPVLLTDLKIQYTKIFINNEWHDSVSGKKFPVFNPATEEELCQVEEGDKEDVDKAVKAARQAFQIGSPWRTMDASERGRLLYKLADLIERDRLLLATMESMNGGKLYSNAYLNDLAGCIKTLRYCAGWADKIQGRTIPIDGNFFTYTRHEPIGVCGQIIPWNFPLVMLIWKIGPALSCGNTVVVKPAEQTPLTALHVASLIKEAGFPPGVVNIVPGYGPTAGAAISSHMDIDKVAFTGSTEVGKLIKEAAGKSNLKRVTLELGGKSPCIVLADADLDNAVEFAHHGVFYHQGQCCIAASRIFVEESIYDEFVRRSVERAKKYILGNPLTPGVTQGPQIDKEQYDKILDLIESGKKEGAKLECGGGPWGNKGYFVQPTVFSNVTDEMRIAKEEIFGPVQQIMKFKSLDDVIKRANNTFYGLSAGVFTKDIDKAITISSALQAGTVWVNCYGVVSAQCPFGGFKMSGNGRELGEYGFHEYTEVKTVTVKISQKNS
Potency is the fitted concentration of half-maximal effect; tags give direction and shape of the fitted curve.

Potency, inactive:
Cc1cc(S(=O)(=O)NC(C)C)ccc1OCC(=O)NCc1ccccc1, O=C(Nc1ccc2oc(-c3ccccc3)nc2c1)c1cc(-n2cnnc2)ccc1Cl, O=C(COC(=O)c1cccc(C(F)(F)F)c1)NCc1ccc(Cl)cc1, CCCCNC(=O)Nc1nc2ccc(CC)cc2s1, O=C(CSc1nnc(-c2cccs2)n1-c1ccccc1)NCc1ccc2c(c1)OCO2, CCOC(=O)c1ccccc1NC(=O)C=C(C)C, CC(NC(=O)CSCc1ccc(Br)cc1)c1ccccc1 (configuration not stated), Cc1cccc(/C=N\NC(=O)c2ccc(Cl)cc2)c1O, CCCCCCN(C(=O)CCCCCN1C(=O)NC(c2ccc(-c3ccccc3)cc2)C(C(=O)OCc2ccccc2)=C1C)C(C(=O)NCCCC)c1ccccc1 (configuration not stated), Cc1ccc(-n2cc(CN(C)Cc3nccn3C)c(-c3ccc(F)cc3)n2)cc1, O=c1c2c3c(sc2ncn1Cc1ccc(F)cc1)CCC3, CC(CCC(=O)O)C1CCC2C3CC(O)[C@@H]4CC(O)CC[C@]4(C)C3CC[C@@]12C (some centres not stated), Cc1cc(Br)cn2cc(C(=O)O)nc12, CCOc1ccccc1N(CC(=O)Nc1ccc(S(=O)(=O)N2CCOCC2)cc1)S(=O)(=O)c1ccccc1, Cc1[nH]c(=O)[nH]c(=O)c1/C=N/NC(=O)[C@H](C)NC(=O)OC(C)(C)C, N#C/C=C1/NC(=O)c2ccccc2S1, C=CCSc1n[nH]c(-c2ccc(OCCC)cc2)n1, Cc1cc(C)cc(CC(Cc2nc3ccccc3[nH]2)c2nc3ccccc3[nH]2)c1 (configuration not stated), O=C(O)CN=C1NC2(CCCCC2)Cc2ccccc21, O=C(Cc1c(F)cccc1Cl)N1CCCC1, NC(=O)C1CCN(c2ncnc3c(-c4ccccc4)nsc23)CC1, COc1ccc(OC)c(C2=NOC(C(=O)Nc3cccc(C(C)=O)c3)C2)c1 (configuration not stated), COC(=O)N1CCN(c2ccc(C)c(C)c2)CC1, Cc1ccccc1OCC(=O)Nc1ccccc1N1CCCCC1, CCn1c(C)nc2cc(S(=O)(=O)C(F)(F)C(F)C(F)(F)F)ccc21 (configuration not stated), O=C(O)C1CC(O)CN1c1nc(Cl)ccc1[N+](=O)[O-] (configuration not stated), Cc1nn(C)c(C)c1/C=N/N=C1\CCC2C3CCc4cc(O)ccc4C3CCC12C (configuration not stated), CCOc1cc(/C=N/NC(=O)C(=O)Nc2cc(Cl)ccc2C)ccc1O, Cc1ccc(/C(O)=C2/C(=O)C(=O)N(Cc3ccco3)C2c2cccs2)cc1 (configuration not stated), CCOc1cc(NC(=S)NCC2CCCO2)c(OCC)cc1NC(=O)C1CC1 (configuration not stated), CCn1c(O)c(C#N)c(C)cc1=O

Potency, active:
C[C@H](NC(=O)c1nc[nH]c1C(=O)N[C@@H](Cc1ccccc1)C(=O)OCc1ccccc1)c1ccccc1 5.01 µM, Cc1cc(C)c2cc(C)c(SCC(=O)NCc3ccco3)nc2c1 14.1 µM, Cc1ccc(S(=O)(=O)Nc2cc(NC(=O)CN3CCOCC3)ccc2Cl)cc1 17.8 µM, CC(/C=C/C(=O)NO)=C\[C@@H](C)C(=O)c1ccc(N(C)C)cc1 28.2 µM, Cc1ccc2cc(C)c(SCC(=O)NCc3ccco3)nc2c1 14.1 µM, Cc1cc(C)nc(SCc2ccc(C(=O)NN=C3C4CC5CC(C4)CC3C5)cc2)n1 3.55 µM

Potency, inconclusive:
CCCCCC(=O)N1CCN(CCN=CC2=C(O)CC(c3cccs3)CC2=O)CC1 (configuration not stated) 31.6 µM [inhibitor, single point], O=C(CSc1ccccc1)Nc1nnc(/C=C/c2ccccc2)s1 25.1 µM [inhibitor, partial curve], CC(C)CN1CCCC2(CCN(C(=O)c3cnccn3)CC2)C1 31.6 µM [inhibitor, single point], CC[C@H](C)[C@@H](NC(=O)O[C@H]1C(=O)c2cc(OC)ccc2O[C@@H]1c1ccc(OC)c(Br)c1)C(=O)OC 39.8 µM [inhibitor, single point], CCOC(=O)C1=C(C)NC(C)=C(C(=O)OCC)C1C1=COCCO1 35.5 µM [inhibitor, single point], O=C(NC(=S)NC1CCSC1=O)c1ccccc1Cl (configuration not stated) 22.4 µM [inhibitor, single point], CC1CC(C)CN(C(=O)C(C)N(C)CC(=O)Nc2ccccc2Cl)C1 (configuration not stated) 39.8 µM [inhibitor, single point], CCc1ccccc1S(=O)(=O)Cc1ccc(C(=O)N2CCN(c3ccccc3OC)CC2)o1 25.1 µM [inhibitor, single point], Oc1ccccc1-c1nc(NCC2CCCO2)c2ccccc2n1 (configuration not stated) 31.6 µM [inhibitor, single point], CCC(C)NCCCCOc1ccc(Cl)cc1C (configuration not stated) 39.8 µM [inhibitor, single point], COc1ccc(-c2onc(C)c2-c2ccc(C(=O)OC(C)C)o2)c(O)c1 39.8 µM [inhibitor, single point], O=C(O)c1c2c(nc3ccccc13)-c1ccccc1CC2 37.7 µM [inhibitor, single point], CC(=O)c1sc2nc(-c3ccc(C)cc3)c3c(c2c1N)CCCC3 28.2 µM [inhibitor, partial curve], COC(=O)c1nn(-c2ccc(C)cc2)c2nnc(Cc3ccccc3)c(=O)n12 8.91 µM [inhibitor, partial curve], COc1ccc(Cn2c3nc4ccccc4nc3c3c(=O)n(Cc4ccco4)cnc32)cc1 14.1 µM [inhibitor, single point], CCOC(=O)C1=C(C)NC2=C(C(=O)OC2)C1c1ccccc1 (configuration not stated) 39.8 µM [inhibitor, single point], Fc1cccc(NC(=S)NCCc2ccccc2)c1 31.6 µM [inhibitor, partial curve], Cc1sc2ncnc(-n3cnc4ccccc43)c2c1C 39.8 µM [inhibitor, single point], Cc1onc(-c2c(F)cccc2Cl)c1C(=O)Nc1cccc2nsnc12 39.8 µM [inhibitor, single point], Cc1cc(C)n2nc(NCc3cccc(Br)c3)nc2n1 31.6 µM [inhibitor, single point], COc1cc(/C=N/NS(=O)(=O)c2ccc3ccccc3c2)ccc1OCc1ccc(C(=O)O)cc1 25.1 µM [inhibitor, single point], O=C(c1ccc(COc2c(F)c(F)cc(F)c2F)o1)N1CCN(c2ccccc2)CC1 28.2 µM [inhibitor, single point], CCOC(=O)c1cnc(-n2nc(C)cc2C)nc1NC 28.2 µM [inhibitor, partial curve], CCCCCCC(C)NC(=S)Nc1cc(S(=O)(=O)N(C)C)ccc1C (configuration not stated) 39.8 µM [inhibitor, single point], CCCCNc1nc(N)nc(-c2cc(Cl)ccc2O)n1 31.6 µM [inhibitor, single point], c1ccc(-c2nc(NCc3cccnc3)c3ccccc3n2)cc1 39.8 µM [inhibitor, single point], COc1ccc(/C=N/NC(=O)c2ccccc2O)cc1CSc1ccccn1 31.6 µM [inhibitor, partial curve], CCCc1nc(N2CCCC2)c(C#N)c2c1CCCC2 28.2 µM [inhibitor, single point], O=C(COc1ccc(Br)cc1)N1CCN(S(=O)(=O)/C=C/c2ccccc2)CC1 39.8 µM [inhibitor, single point], CSc1nsc2nc(=O)c(/C=C3\C(C)=Nc4ccccc43)c(N)n12 28.2 µM [inhibitor, single point], c1ccn2cc(-c3ccc4c(c3)OCO4)cc2c1 22.4 µM [inhibitor, partial curve], CCOc1cc(S(=O)(=O)NCCc2ccc(OC)c(OC)c2)c(OCC)cc1-n1cnnn1 39.8 µM [inhibitor, single point], Cc1[nH]c(=S)n(CC2CCCO2)c1C (configuration not stated) 39.8 µM [inhibitor, single point], CCOP(=O)(OCC)c1nc(-c2ccc(Cl)cc2Cl)oc1N1CCCCC1 44.7 µM [inhibitor, single point], CCC(C)(C)n1nnnc1C(c1ccc(C)cc1)N1CCN(Cc2cccnc2)CC1 (configuration not stated) 44.7 µM [inhibitor, single point], COc1ccc(-c2nc3ccccc3c(=O)n2CCOc2ccccc2C)cc1 44.7 µM [inhibitor, single point], CC12CCC(C(=O)N(CC(O)CN3CCCCC3)C1=O)C2(C)C (configuration not stated) 25.1 µM [inhibitor, partial curve], COc1ccc(N=C2SC(CC(=O)Nc3cccc(Cl)c3)C(=O)N2Cc2ccco2)cc1 (configuration not stated) 20 µM [inhibitor, single point], CC(C)CCNC(=O)c1ccc(CSCc2cccc(F)c2)o1 35.5 µM [inhibitor, single point], CCOc1ccc2sc(NS(=O)(=O)c3ccc(OC)c(OC)c3)nc2c1 39.8 µM [inhibitor, single point]
